Data from the supplement of paper PMC7826260.
The other results are listed elsewhere or left out. Viral Rep nickase domains cut single-stranded DNA in vitro (3 µM enzyme, 1 h, 37 °C); shown is the middle of each 90-letter strand. A value is the log2 ratio of uncut reads to the pool without enzyme; the lower, the more was cut; hits are not called. Counts are relative to all reads; where an enzyme cuts many sequences, the uncut ones exceed 0.

How the values were obtained:
Test in all cases: uncleaved DNA left, log2 of reads against the no-enzyme library (log2 ratio); higher = less cleavage (more negative = more Rep cleavage of the k-mer); sequences stand for … in CTCGTCCG…ACCGGAGA
[1] = system: T1, Rep nickase domain of Muscovy duck circovirus
T1 sequence (Rep 1-111, printed without the tag): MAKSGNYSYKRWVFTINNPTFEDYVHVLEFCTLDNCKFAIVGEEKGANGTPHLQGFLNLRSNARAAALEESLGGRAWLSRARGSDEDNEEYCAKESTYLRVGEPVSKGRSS
Description: (§1)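 A pool of 90-nt single-stranded DNAs with seven random bases just before the constant AC of the nick site (name = the seven bases) was cut by 3 µM recombinant His6-SUMO-tagged Rep nickase domain (300 nM DNA, 50 mM HEPES pH 8.0, 50 mM NaCl, 1 mM MnCl2, 1 h, 37 °C, three replicates). Uncut DNA was amplified and sequenced.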

[2] = system: T2, Rep nickase domain of banana bunchy top virus
T2 sequence (Rep 1-94, printed without the tag): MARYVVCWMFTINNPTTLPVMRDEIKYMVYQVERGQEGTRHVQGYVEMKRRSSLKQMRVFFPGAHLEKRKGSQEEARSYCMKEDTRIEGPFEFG
Description: as §1

[3] = system: T3, Rep nickase domain of cabbage leaf curl virus
T3 sequence (Rep 1-116, printed without the tag): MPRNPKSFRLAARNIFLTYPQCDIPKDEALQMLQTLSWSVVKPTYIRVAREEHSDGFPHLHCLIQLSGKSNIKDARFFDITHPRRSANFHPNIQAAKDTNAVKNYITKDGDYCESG
Description: as §1

[4] = system: T4, Rep nickase domain of chickpea chlorotic dwarf virus
T4 sequence (Rep 1-124, printed without the tag): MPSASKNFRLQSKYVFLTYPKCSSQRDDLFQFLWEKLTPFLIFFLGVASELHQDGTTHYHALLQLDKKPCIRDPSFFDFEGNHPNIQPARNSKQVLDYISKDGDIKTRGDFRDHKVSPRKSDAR
Description: as §1

[5] = system: T5, Rep nickase domain of faba bean necrotic yellows virus
T5 sequence (Rep 1-98, printed without the tag): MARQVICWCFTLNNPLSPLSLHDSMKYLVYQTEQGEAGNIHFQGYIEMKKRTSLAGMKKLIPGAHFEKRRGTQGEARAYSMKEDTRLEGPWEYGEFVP
Description: as §1

[6] = system: T6, Rep nickase domain of maize striate mosaic virus
T6 sequence (Rep 1-117, printed without the tag): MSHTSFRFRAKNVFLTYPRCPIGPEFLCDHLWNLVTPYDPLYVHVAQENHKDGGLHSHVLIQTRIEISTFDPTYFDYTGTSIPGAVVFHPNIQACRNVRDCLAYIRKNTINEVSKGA
Description: as §1

[7] = system: T7, Rep nickase domain of porcine circovirus 2
T7 sequence (Rep 2-116, printed without the tag): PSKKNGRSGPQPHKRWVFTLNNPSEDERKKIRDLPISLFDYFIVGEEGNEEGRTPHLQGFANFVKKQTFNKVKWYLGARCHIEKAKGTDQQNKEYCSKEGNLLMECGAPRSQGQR
Description: as §1

[8] = system: T8, Rep nickase domain of tomato yellow leaf curl virus
T8 sequence (Rep 1-136, printed without the tag): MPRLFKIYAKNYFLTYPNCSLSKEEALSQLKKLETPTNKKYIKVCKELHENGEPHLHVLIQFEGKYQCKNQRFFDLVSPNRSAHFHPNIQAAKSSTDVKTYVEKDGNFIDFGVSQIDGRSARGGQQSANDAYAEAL
Description: as §1

[9] = system: T9, Rep nickase domain of wheat dwarf virus
T9 sequence (Rep 1-137, printed without the tag): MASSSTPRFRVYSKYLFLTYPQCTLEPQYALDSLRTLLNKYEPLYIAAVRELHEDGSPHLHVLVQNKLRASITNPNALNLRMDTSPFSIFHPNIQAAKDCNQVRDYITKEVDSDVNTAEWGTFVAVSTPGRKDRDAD
Description: as §1

Sequence | uncleaved DNA left (log2) [1] | uncleaved DNA left (log2) [2] | uncleaved DNA left (log2) [3] | uncleaved DNA left (log2) [4] | uncleaved DNA left (log2) [5] | uncleaved DNA left (log2) [6] | uncleaved DNA left (log2) [7] | uncleaved DNA left (log2) [8] | uncleaved DNA left (log2) [9]
CATAGCT | -0.0126 | -0.198 | -0.698 | -1.61 | 0.109 | -1.2 | 0.0633 | 0.00304 | -0.067
GTAGGAC | -0.0739 | 0.0606 | 0.735 | 1.82 | -0.0523 | 1.92 | 0.191 | 0.0629 | 0.138
GGCGGTC | -0.00224 | -0.0696 | 0.295 | 0.786 | 0.0018 | 0.97 | -0.0155 | -0.172 | 0.0205
TAAGGCT | 0.0949 | -0.0385 | -1.92 | -1.91 | -0.0626 | 0.861 | -0.0185 | -0.117 | -0.322
ATAATTA | -0.0356 | -0.0248 | 0.183 | -1.4 | 0.112 | -0.781 | -0.0751 | 0.0978 | 0.148
CGTCAGA | -0.00518 | -0.011 | -0.0823 | 0.00542 | 0.0103 | -0.532 | -0.0367 | -0.0692 | 0.0943
CCCAATG | -0.148 | -0.0728 | -0.503 | -0.596 | -0.000271 | -0.912 | 0.0619 | -0.034 | 0.0293
GGCTCCA | 0.0539 | 0.0593 | 0.221 | 0.525 | 0.0424 | 0.924 | 0.084 | 0.16 | 0.236
GGAATCT | 0.131 | 0.131 | 0.474 | 1.08 | 0.113 | 1.94 | 0.146 | 0.108 | 0.181
TGTCTGT | 0.067 | 0.049 | 0.204 | 0.194 | 0.0219 | 0.434 | 0.0583 | 0.0723 | 0.0789
TGAATAC | -0.0296 | 0.0221 | 0.339 | 0.287 | -0.129 | 0.767 | 0.0285 | -0.0528 | 0.0746
CTGGGTT | 0.135 | -0.0212 | 0.411 | 0.161 | 0.0623 | 1.17 | 0.147 | 0.0748 | -0.0155
TAAGCAC | -0.00586 | -0.121 | -0.264 | -0.844 | -0.113 | -0.81 | -0.0395 | -0.0837 | -0.185
TAGGGCC | 0.0768 | 0.031 | 0.267 | 0.686 | 0.0111 | 0.886 | -0.0723 | 0.0207 | 0.0612
GGCACTC | -0.0547 | -0.103 | 0.47 | 1.25 | -0.0579 | 1.78 | -0.0906 | -0.113 | 0.000853
CGGTTCT | -0.51 | -0.138 | 0.00249 | -0.358 | 0.00108 | 0.507 | -1.81 | -0.128 | -0.0162

Sequence | uncleaved DNA left (log2) [1] | uncleaved DNA left (log2) [2] | uncleaved DNA left (log2) [3] | uncleaved DNA left (log2) [4] | uncleaved DNA left (log2) [5] | uncleaved DNA left (log2) [6] | uncleaved DNA left (log2) [7] | uncleaved DNA left (log2) [8] | uncleaved DNA left (log2) [9]
GGATCGC | 0.0133 | 0.0857 | 0.368 | 0.915 | -0.0688 | 1.03 | 0.092 | -0.0105 | 0.172
GGTTCAG | 0.0367 | 0.0843 | 0.617 | 1.31 | 0.0378 | 1.33 | 0.233 | 0.116 | 0.171
ACTATCA | -0.125 | 0.0212 | 0.0913 | -0.369 | 0.0287 | -0.000254 | 0.0568 | -0.053 | 0.145
TACCTAA | 0.0161 | -0.0573 | -0.14 | -1.82 | -0.0867 | -0.545 | -0.956 | -0.0967 | -0.0838
CCACGAG | 0.0956 | 0.0567 | 0.0525 | 0.231 | -0.0357 | -0.843 | 0.125 | 0.0423 | 0.145
GCACCCG | 0.0147 | 0.0946 | -0.679 | -0.591 | 0.0427 | -0.879 | -0.113 | -0.0478 | -0.0454
GCGTCGA | -0.135 | 0.037 | -0.0882 | -0.119 | -0.0544 | -0.526 | -0.0489 | 0.0887 | 0.0396
TCGTCGG | 0.198 | 0.0758 | 0.569 | 1.44 | 0.19 | 2 | 0.211 | -0.0281 | -0.063
GGGCGAC | -0.00424 | 0.0837 | 0.547 | 1.42 | -0.0745 | 1.88 | 0.109 | 0.0111 | 0.168
TTGAATC | 0.108 | 0.0437 | 0.161 | 0.138 | 0.0111 | -0.535 | -0.0535 | 0.0408 | 0.0474
GTGTAGA | 0.168 | 0.148 | 0.387 | 0.852 | 0.0521 | 1.28 | 0.203 | 0.23 | 0.192
GTGACAT | 0.132 | 0.221 | 0.953 | 2.19 | 0.0316 | 2.39 | 0.296 | 0.0708 | 0.242
AAACAAA | 0.0117 | -0.0203 | -0.109 | -1.03 | -0.0357 | -0.551 | -0.0172 | -0.0647 | -0.0128
CCTGGTA | -0.0326 | 0.156 | 0.0269 | -0.3 | 0.0454 | -0.199 | 0.0902 | 0.118 | 0.0854
GTGACTG | -0.0301 | 0.0691 | 0.129 | 0.819 | 0.0922 | 1.79 | 0.00852 | 0.0382 | 0.0963
ACTACAA | -0.139 | -0.102 | -0.232 | -0.562 | -0.0725 | -0.778 | 0.000904 | -0.103 | 0.0183
